According to the supplement of paper PMC11283458:
The other results are listed elsewhere or left out. Repeats are few or missing, and single values can be far off.

The molecules below were run on Mef2d microexon (dual-luciferase reporter) (assay: delta PSI of alternative exon relative to 0.4% DMSO control (RT-PCR) (percentage points); higher = more exon inclusion). Settings: concentration: not stated (optimised per compound); Neuro-2a.
Experimental: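 Reads PSI of the Mef2d reporter microexon and of endogenous mouse neural alternative exons. dPSI is relative to the 0.4% DMSO control, single replicate.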
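Further: exons read include endogenous Mef2d, Mast2, Ergic3 and Trappc9 microexons plus the longer neural-regulated Zdhhc20, Mgrn1 and Asph cassette exons, alongside the reporter microexon.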

| SMILES | delta PSI of alternative exon |
| --- | --- |
| O=C(Nc1cccc([N+](=O)[O-])c1)C(C(=O)Nc1cccc([N+](=O)[O-])c1)C12CC3CC(CC(C3)C1)C2 | 1.51 |
| CC1(c2ccc([N+](=O)[O-])cc2)NN=C(c2ccccc2)S1 (stereo not given) | 1.09 |
| CC(=O)Nc1ccc(-c2ccc(NC(C)=O)cc2)cc1 | 0.762 |
| CN(C)S(=O)(=O)c1ccc2c(c1)/C(=C/c1cc3c([nH]1)CCCC3)C(=O)N2 | -1.44 |
| O=C(NCCNc1nccc(C(F)(F)F)n1)Nc1ccccc1Cl | -34.1 |
| Cc1cc(NC(=O)Nc2cc(Cl)cc(Cl)c2)on1 | 1.72 |
| CC(=O)Nc1ccc([C@H](C)C(=O)Nc2ncc(C(C)C)s2)cc1 | -18.2 |
| CCN(CC)Cc1ccc2cc(COC(=O)Nc3ccc(C(=O)NO)cc3)ccc2c1 [Givinostat] | 11.4 |
| CC(=O)OC1(C(=O)/C=C/c2ccccc2)CCCCC1 | -8.05 |
| CC1(COc2ccc3c(c2)ncn3-c2ccc3cccc(N4CCC(N)CC4)c3n2)COC1 [Crenolanib] | 4.84 |
| CCN1C(=CC(=S)Nc2ccccc2)Sc2ccccc21 | -1.68 |
| N#Cc1c(O)nsc1Nc1ccc(Cl)cc1 | -0.236 |
| COc1cc2ncn(-c3cc(OCc4ccccc4C(F)(F)F)c(C(N)=O)s3)c2cc1OC | -2.92 |
| O=C(CCCCCCC(=O)Nc1ccccc1)NO [Vorinostat] | 17.3 |
| CC(C)(C)c1ccc2cc(C#N)c(C#N)cc2c1 | -7.29 |
| NC(=NOC(=O)c1c(F)cccc1Cl)c1ccc([N+](=O)[O-])o1 | -0.439 |
| COc1ccc(C=C2CCCc3ccccc3C2=O)cc1 | -4.04 |
| CCN(CC)C(=S)NC(=S)c1ccc(C)cc1 | 0.861 |
| CCCCc1nc2cc(/C=C/C(=O)NO)ccc2n1CCN(CC)CC | 16.3 |
| Cc1ccc(S(=O)(=O)Nc2ccc3ncccc3c2)cc1 | 12.6 |

| SMILES | delta PSI of alternative exon |
| --- | --- |
| O=S(=O)(N/N=C/c1cc(Cl)cc(Cl)c1O)c1ccc(Cl)cc1 | 15.7 |
| Cc1[nH]c2ccccc2c1CCNCc1ccc(/C=C/C(=O)NO)cc1 [Panobinostat] | 17.1 |
| O=C(C=C(C(=O)c1ccccc1)c1ccccc1)c1ccc2c(c1)OCCO2 | -2.02 |
| C=CCn1c(N)c(C(=O)NN=Cc2cccs2)sc1=S | 2.68 |
| CCCCCCc1ccccc1NC(=O)Nc1cccnc1 | -0.0418 |
| Nc1ncn(C2OC(CO)C(O)C2O)c(=O)n1 (stereo not given) [Azacytidine-5] | -4.4 |
| O=C(NCCNc1ccc(C(F)(F)F)cn1)Nc1ccccc1Cl | -31.4 |
| CNC(=S)N/N=C/c1ccccc1O | 7.98 |
| N#CCc1ccc(Nc2nc(Nc3cc(C4CCC4)[nH]n3)c3ccccc3n2)cc1 | 6.71 |
| Cc1onc(-c2c(Cl)cccc2Cl)c1C(=O)SCC(=O)Nc1ccc(F)cc1 | -9.91 |
| COc1ccc(C=Cc2nc3ccccc3s2)cc1OC | -1.9 |
| CC1=C(/C=C/C(C)=C/C=C/C(C)=C/C(=O)Nc2ccc(O)cc2)C(C)(C)CCC1 [Fenretinide] | -3.27 |
| CCCNC(=O)Nc1ccc(OC(F)(F)F)cc1 | 1.77 |
| Cn1cc(CNCC2CCN(c3ncc(C(=O)NO)cn3)CC2)c2ccccc21 | 14.2 |
| CC(=O)Nc1cccc(-n2c(=O)n(C3CC3)c(=O)c3c(Nc4ccc(I)cc4F)n(C)c(=O)c(C)c32)c1 [Trametinib] | 7.62 |
| Nc1nc(Nc2ccc(S(N)(=O)=O)cc2)nn1C(=S)Nc1c(F)cccc1F [Cdk1/2 Inhibitor III] | -25.6 |
| Nc1ccc(S(=O)(=O)Nc2cccc(C(F)(F)F)c2)cc1 | 2.3 |
| Cc1onc(-c2ccccc2)c1C(=O)Nc1c(C(C)(C)C)nn(C)c1C(C)(C)C | -0.671 |
| COc1ccc(NC(=O)CSC(=O)c2c(-c3c(Cl)cccc3Cl)noc2C)cc1 | -11.8 |
| Oc1nc2ccccc2nc1-c1c[nH]c2ccccc12 | 1.88 |
